Test results from PMC6212790.
Some of the results follow. At the low end of the ranking the order means little.

target: T1, GST-Rok (full length) (UniProt O34857); assay: protein binding microarray; conditions: Rok is a gene silencer of Bacillus subtilis; high values mean tight binding; most listed sequences are background and not binding sites; double strand, one strand shown;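 also: rank score from −0.5 (least bound) to 0.5 (best bound)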
T1 sequence: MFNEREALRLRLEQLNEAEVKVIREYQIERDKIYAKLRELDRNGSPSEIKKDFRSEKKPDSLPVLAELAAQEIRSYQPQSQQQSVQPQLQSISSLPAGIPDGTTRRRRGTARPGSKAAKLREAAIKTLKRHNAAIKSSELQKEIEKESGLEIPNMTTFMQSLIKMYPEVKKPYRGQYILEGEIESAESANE

| Sequence | binding signal [E-score] |
| --- | --- |
| CAACTGAG | 0.013 |
| CCTCAATC | -0.128 |
| ACCCGACA | -0.182 |
| CCATTCGA | 0.0211 |
| CGGTGCAG | -0.127 |
| CCTATGAC | 0.0186 |
| CTCCGGAG | -0.138 |
| ACAACCTC | -0.0717 |
| ATATAGCA | 0.213 |
| ATCGCCAA | -0.0596 |
| ATCAAAGG | -0.072 |
| GTTATTTA | 0.197 |
| AGCTAAAT | 0.18 |
| AAAGAAGG | -0.129 |
| GAGCTTAC | -0.0909 |
| CGTATTTA | 0.261 |
| ATTAACAA | 0.225 |
| AATGCATC | 0.0539 |
| ATTATTAG | 0.255 |
| TAATTATA | 0.385 |
| CAGAACCA | -0.00486 |
| CGATTGCG | -0.00985 |
| ACCCCTAG | -0.113 |
| CGCGGCTA | -0.2 |
| CCAGTATC | -0.0798 |

| Sequence | binding signal [E-score] |
| --- | --- |
| AAGTGCGT | -0.0891 |
| GTTCGCTA | 0.0859 |
| CACGTGAC | -0.21 |
| AAGTGATT | 0.0598 |
| TCGCGTAA | 0.195 |
| GAAGAAAA | -0.0942 |
| CGGCAATC | -0.144 |
| CAAAGTTG | -0.169 |
| AACAAACA | 0.0686 |
| AGTCGGCA | -0.0691 |
| GGGGAAAA | -0.0477 |
| AGAAGCAC | -0.167 |
| ACAAATTG | -0.0361 |
| AACGGAGC | 0.0292 |
| CAGTGCGC | -0.0687 |
| TGTTTAAA | 0.0326 |
| AGCATACT | 0.0869 |
| ATCAGCAG | 0.0961 |
| GATCCTTA | -0.00255 |
| CAGGAAGG | -0.111 |
| GACGCAAA | 0.00774 |
| ACAAGAGT | 0.0849 |
| GGTCGCAC | -0.183 |
| AGACACAG | -0.115 |
| CCTACGCC | -0.171 |

| Sequence | binding signal [E-score] |
| --- | --- |
| GCAGCTTA | -0.093 |
| AGTAAAAG | 0.19 |
| AAAGCTCG | -0.176 |
| ATGACCAT | -0.0893 |
| CCGGGCAA | -0.268 |
| CCCTCCAC | -0.231 |
| CGTTCGAG | -0.0997 |
| CGGTGGTC | -0.275 |
| GTACGTAA | 0.119 |
| CAGTTAGA | 0.000546 |
| AGTGCTTG | -0.0505 |
| AATATTTG | 0.256 |
| AGGGATCA | -0.259 |
| CTTGTCTC | 0.0221 |
| ATCAATTA | 0.231 |
| ACAGCTAA | 0.193 |
| ACGCAGAG | -0.119 |
| CCTGGCCA | -0.293 |
| GTATACTA | 0.378 |
| GTCTCGAA | -0.0554 |
| CCTGACCG | -0.228 |
| AACTGACG | -0.0918 |
| CGAGTTAC | 0.0192 |
| ACGGGGGC | -0.5 |
| ATCATTAC | 0.315 |

| Sequence | binding signal [E-score] |
| --- | --- |
| GTGAATGA | -0.163 |
| CGTCTCAG | -0.278 |
| CAGATACC | -0.000413 |
| ACGAAAGG | -0.0693 |
| ACATGTCC | -0.122 |
| GACCATAA | -0.0227 |
| CGTCTTTC | 0.000649 |
| CCCGACTA | -0.18 |
| CGCCTTTC | -0.138 |
| ATGGCACG | 0.0421 |
| ACCCGAAG | -0.241 |
| AACGAGAT | -0.0704 |
| AACCCCAG | -0.299 |
| CAGCCATA | 0.0273 |
| AAGCGATT | 0.0584 |
| TGTCCCAA | -0.1 |
| ACATAACC | 0.0404 |
| ATCGTTCG | 0.0858 |
| GCAATAAC | 0.0651 |
| GCAGCGAC | -0.141 |
| AAACTCTC | 0.106 |
| AACCGAAA | -0.029 |
| CTTCGGCA | -0.316 |
| CAGACAAG | -0.0886 |
| CAGGGAGG | -0.376 |

| Sequence | binding signal [E-score] |
| --- | --- |
| ATGAAGGG | -0.149 |
| GAGTACGC | -0.0824 |
| TAGATTCA | 0.304 |
| CAAGGTAC | -0.0664 |
| TAACGGAA | 0.23 |
| ATAACGGA | 0.0421 |
| ATCATAGC | 0.195 |
| ATCCGTAA | -0.114 |
| CAAAAACA | 0.183 |
| CGTGACAA | -0.11 |
| CAGTTACC | 0.135 |
| GGGGACTA | -0.22 |
| ACTGAAGA | -0.00572 |
| CTGAAAAG | -0.0901 |
| AGGGAGCG | -0.389 |
| AGTCCTTC | -0.205 |
| AACAGCCC | -0.273 |
| CTAGTTTC | 0.413 |
| CAGGGTGA | -0.203 |
| GCGCTCCA | -0.264 |
| AGGCATCC | -0.215 |
| ATTTGGGC | 0.0192 |
| CCAGTCTC | -0.19 |
| GGGTCTCA | -0.249 |
| AAATAGTG | 0.231 |

| Sequence | binding signal [E-score] |
| --- | --- |
| ACTGATGG | -0.0587 |
| GAGTAGGC | 0.0627 |
| AATCAAGA | 0.0241 |
| CGTACTCC | -0.121 |
| GGTGGTCA | -0.204 |
| CAAACAGC | -0.228 |
| GCGGGGTA | -0.135 |
| CGTAGCCC | -0.179 |
| TGCCCCCA | -0.349 |
| CGGCGTAA | 0.0553 |
| CCCTCGTC | -0.278 |
| ACGTTGGC | -0.214 |
| CACGAAAC | 0.0723 |
| CAATACCG | 0.069 |
| CAGGATGG | -0.143 |
| CATCTCCC | -0.298 |
| CTCTGCTA | -0.0503 |
| ATGCCGCG | -0.126 |
| CAATTTGG | -0.0306 |
| CGCGCTAA | 0.304 |
| ATAAGATG | 0.0864 |
| AAGGAACA | -0.0856 |
| ACACTATG | 0.182 |
| ACCCATAC | 0.0817 |
| AATATGGG | 0.0683 |

| Sequence | binding signal [E-score] |
| --- | --- |
| CCCGGGAG | -0.364 |
| CAAATTCG | 0.0126 |
| ACTAAAAA | 0.21 |
| CCACGTCC | -0.344 |
| CTTCTAGA | -0.0745 |
| CACCGTGG | -0.306 |
| CATCACGC | -0.199 |
| AGATCCCG | 0.0932 |
| ACAAAATG | 0.143 |
| ATCAGTGG | 0.0163 |
| CTCTGCCC | -0.365 |
| AACACCCT | -0.115 |
| CCCTTGCC | -0.351 |
| ACCCTGTA | -0.122 |
| AACCCGAC | -0.181 |
| AGTGTCGA | 0.00605 |
| ACTATAGC | 0.164 |
| AAGGGAAT | -0.0234 |
| ACCTGATA | 0.0403 |
| TAACTAAA | 0.151 |
| GACCTCAA | -0.307 |
| GTCTGCAA | -0.191 |
